# Like-named read-outs stand apart in the source and are kept apart here.
# B1: PD1-IL7 VAR21 partially glycosylated (other)
# light: DIVMTQSPDSLAVSLGERATINCKASESVDTSDNSFIHWYQQKPGQSPKLLIYRSSTLESGVPDRFSGSGSGTDFTLTISSLQAEDVAVYYCQQNYDVPWTFGQGTKVEIKRTVAAPSVFIFPPSDEQLKSGTASVVCLLNNFYPREAKVQWKVDNALQSGNSQESVTEQDSKDSTYSLSSTLTLSKADYEKHKVYACEVTHQGLSSPVTKSFNRGEC
# heavy 1: EVQLLESGGGLVQPGGSLRLSCAASGFSFSSYTMSWVRQAPGKGLEWVATISGGGRDIYYPDSVKGRFTISRDNSKNTLYLQMNSLRAEDTAVYYCVLLTGRVYFALDSWGQGTLVTVSSASTKGPSVFPLAPSSKSTSGGTAALGCLVKDYFPEPVTVSWNSGALTSGVHTFPAVLQSSGLYSLSSVVTVPSSSLGTQTYICNVNHKPSNTKVDKKVEPKSCDKTHTCPPCPAPEAAGGPSVFLFPPKPKDTLMISRTPEVTCVVVDVSHEDPEVKFNWYVDGVEVHNAKTKPREEQYNSTYRVVSVLTVLHQDWLNGKEYKCKVSNKALGAPIEKTISKAKGQPREPQVCTLPPSRDELTKNQVSLSCAVKGFYPSDIAVEWESNGQPENNYKTTPPVLDSDGSFFLVSKLTVDKSRWQQGNVFSCSVMHEALHNHYTQKSLSLSPG
# heavy 2: EVQLLESGGGLVQPGGSLRLSCAASGFSFSSYTMSWVRQAPGKGLEWVATISGGGRDIYYPDSVKGRFTISRDNSKNTLYLQMNSLRAEDTAVYYCVLLTGRVYFALDSWGQGTLVTVSSASTKGPSVFPLAPSSKSTSGGTAALGCLVKDYFPEPVTVSWNSGALTSGVHTFPAVLQSSGLYSLSSVVTVPSSSLGTQTYICNVNHKPSNTKVDKKV[human IgG1 Fc with changes left out here]GGGGSGGGGSGGGGDCDIEGKDGKQYESVLMVSIDQLLDSMKEIGSNCLNNEFNFFKRHICDANKEGMFLFRAARKLRQFLKMNSTGDFDLHLLKVSEETTILLNCAGQVKGRKPAALGEAQPTKSLEENKALKEQKKLNDLCFLKRLLQEIKTCWNKILMGTKEH
# B2: PD1-IL7 VAR21 fully glycosylated (other)
# light: B1 light
# heavy 1: B1 heavy 1
# heavy 2: EVQLLESGGGLVQPGGSLRLSCAASGFSFSSYTMSWVRQAPGKGLEWVATISGGGRDIYYPDSVKGRFTISRDNSKNTLYLQMNSLRAEDTAVYYCVLLTGRVYFALDSWGQGTLVTVSSASTKGPSVFPLAPSSKSTSGGTAALGCLVKDYFPEPVTVSWNSGALTSGVHTFPAVLQSSGLYSLSSVVTVPSSSLGTQTYICNVNHKPSNTKVDKKV[human IgG1 Fc with changes left out here]GGGGSGGGGSGGGGDCDIEGKDGKQYESVLMVSIDQLLDSMKEIGSNCLNNEFNFFKRHICDANKEGMFLFRAARKLRQFLKMNSTGDFDLHLLKVSEETTILLNCTGQVKGRKPAALGEAQPTKSLEENKSLKEQKKLNDLCFLKRLLQEIKTCWNKILMGTKEH
# B3: Reference molecule 8 (other)
# light: B1 light
# heavy 1: EVQLLESGGGLVQPGGSLRLSCAASGFSFSSYTMSWVRQAPGKGLEWVATISGGGRDIYYPDSVKGRFTISRDNSKNTLYLQMNSLRAEDTAVYYCVLLTGRVYFALDSWGQGTLVTVSSASTKGPSVFPLAPSSKSTSGGTAALGCLVKDYFPEPVTVSWNSGALTSGVHTFPAVLQSSGLYSLSSVVTVPSSSLGTQTYICNVNHKPSNTKVDKKVEPKSCDKTHTCPPCPAPEAAGGPSVFLFPPKPKDTLMISRTPEVTCVVVDVSHEDPEVKFNWYVDGVEVHNAKTKPREEQYNSTYRVVSVLTVLHQDWLNGKEYKCKVSNKALGAPIEKTISKAKGQPREPQVCTLPPSRDELTKNQVSLSCAVKGFYPSDIAVEWESNGQPENNYKTTPPVLDSDGSFFLVSKLTVDKSRWQQGNVFSCSVMHEALHNHYTQKSLSLSPGK
# heavy 2: EVQLLESGGGLVQPGGSLRLSCAASGFSFSSYTMSWVRQAPGKGLEWVATISGGGRDIYYPDSVKGRFTISRDNSKNTLYLQMNSLRAEDTAVYYCVLLTGRVYFALDSWGQGTLVTVSSASTKGPSVFPLAPSSKSTSGGTAALGCLVKDYFPEPVTVSWNSGALTSGVHTFPAVLQSSGLYSLSSVVTVPSSSLGTQTYICNVNHKPSNTKVDKKV[human IgG1 Fc with changes left out here]GGGGSGGGGSGGGGSDCDIEGKDGKQYESVLMVSIDQLLDSMKEIGSNCLNNEFNFFKRHICDANKEGMFLFRAARKLRQFLKMNSTGDFDLHLLKVSEGTTILLNCTGQVKGRKPAALGEAQPTKSLEENKSLKEQKKLNDLCFLKRLLQEIKTCHNKILMGTKEH
# B4: Reference molecule 6 (other)
# light: B1 light
# heavy 1: B3 heavy 1
# heavy 2: EVQLLESGGGLVQPGGSLRLSCAASGFSFSSYTMSWVRQAPGKGLEWVATISGGGRDIYYPDSVKGRFTISRDNSKNTLYLQMNSLRAEDTAVYYCVLLTGRVYFALDSWGQGTLVTVSSASTKGPSVFPLAPSSKSTSGGTAALGCLVKDYFPEPVTVSWNSGALTSGVHTFPAVLQSSGLYSLSSVVTVPSSSLGTQTYICNVNHKPSNTKVDKKV[human IgG1 Fc with changes left out here]GGGGSGGGGSGGGGSDSDIEGKDGKQYESVLMVSIDQLLDSMKEIGSNCLNNEFNFFKRHISDANKEGMFLFRAARKLRQFLKMNSTGDFDLHLLKVSEGTTILLNSTGQVKGRKPAALGEAQPTKSLEENKSLKEQKKLNDLCFLKRLLQEIKTSWNKILMGTKEH
# B5: Reference molecule 7 (other)
# light: B1 light
# heavy 1: B3 heavy 1
# heavy 2: EVQLLESGGGLVQPGGSLRLSCAASGFSFSSYTMSWVRQAPGKGLEWVATISGGGRDIYYPDSVKGRFTISRDNSKNTLYLQMNSLRAEDTAVYYCVLLTGRVYFALDSWGQGTLVTVSSASTKGPSVFPLAPSSKSTSGGTAALGCLVKDYFPEPVTVSWNSGALTSGVHTFPAVLQSSGLYSLSSVVTVPSSSLGTQTYICNVNHKPSNTKVDKKV[human IgG1 Fc with changes left out here]GGGGSGGGGSGGGGSDCDIEGKDGKQYESVLMVSIDQLLDSMKEIGSNSLNNEFNFFKRHISDANKEGMFLFRAARKLRQFLKMNSTGDFDLHLLKVSEGTTILLNSTGQVKGRKPAALGEAQPTKSLEENKSLKEQKKLNDLSFLKRLLQEIKTCWNKILMGTKEH
# How the values were obtained:
# Assay in all cases: cell-based or functional assay
# [1] = molecular target: T1, IL-7 receptor (IL-7Ra/common gamma chain) on activated human CD4 T cells (human, UniProt P16871 21-459; P31785 23-369)
# T1 sequence (looked up) 1: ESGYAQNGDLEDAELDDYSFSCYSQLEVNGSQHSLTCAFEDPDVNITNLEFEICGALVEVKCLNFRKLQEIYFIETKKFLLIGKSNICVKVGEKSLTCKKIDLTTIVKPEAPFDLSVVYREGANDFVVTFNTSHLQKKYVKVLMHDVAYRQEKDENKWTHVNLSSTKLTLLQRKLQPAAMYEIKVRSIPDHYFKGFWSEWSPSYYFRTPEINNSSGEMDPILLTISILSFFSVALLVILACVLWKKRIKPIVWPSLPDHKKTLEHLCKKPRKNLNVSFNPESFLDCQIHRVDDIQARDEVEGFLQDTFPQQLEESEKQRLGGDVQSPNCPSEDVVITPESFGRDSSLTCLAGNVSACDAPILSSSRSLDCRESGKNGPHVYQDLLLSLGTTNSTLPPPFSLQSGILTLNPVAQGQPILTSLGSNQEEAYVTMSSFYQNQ
# T1 sequence (looked up) 2: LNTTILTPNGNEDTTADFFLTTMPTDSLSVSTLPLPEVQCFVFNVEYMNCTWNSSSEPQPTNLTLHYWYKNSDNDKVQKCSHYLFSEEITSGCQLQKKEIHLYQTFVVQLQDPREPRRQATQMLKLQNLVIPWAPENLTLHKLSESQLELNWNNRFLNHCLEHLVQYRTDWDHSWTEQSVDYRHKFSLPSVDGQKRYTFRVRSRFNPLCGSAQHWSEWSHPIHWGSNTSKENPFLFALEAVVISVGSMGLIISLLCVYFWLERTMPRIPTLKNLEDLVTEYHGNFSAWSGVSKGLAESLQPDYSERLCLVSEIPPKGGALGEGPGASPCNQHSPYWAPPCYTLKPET
# [2] = molecular target: T2, human PD-1 on activated CD4 T cells (human, UniProt Q15116 25-288)
# [3] = molecular target: T2, human PD-1 on activated CD4 T cells; remark: listed apart in the source
# T2 sequence (Q15116 25-288 limits assumed): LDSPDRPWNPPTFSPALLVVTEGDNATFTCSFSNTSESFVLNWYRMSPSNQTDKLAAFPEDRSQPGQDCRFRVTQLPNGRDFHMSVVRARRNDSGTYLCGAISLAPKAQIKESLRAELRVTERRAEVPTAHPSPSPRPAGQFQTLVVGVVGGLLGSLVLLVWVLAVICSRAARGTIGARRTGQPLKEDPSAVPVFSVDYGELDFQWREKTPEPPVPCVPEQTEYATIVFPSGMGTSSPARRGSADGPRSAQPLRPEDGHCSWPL
Binder,Fold reduction in potency as EC50 [PD1^+]/EC50 [PD1^+ PD1-IL7wt] [1] [fold],cis-activity as EC50 [PD1^- pre-blocked]/EC50 [PD1^+] [2] [fold],cis-activity as EC50 [PD1^- pre-blocked]/EC50 [PD1^+] [3] [fold]
B1,0.56,104,
B2,0.49,77.2,39
B3,,,4.5
B4,,,32.1
B5,,,0.1
